Results published in patent US20230181723A1 (UNIVERSITY OF MARYLAND COLLEGE PARK, published 2023).

Target: T1, human TMEM129 (E3 ligase), endogenous in HeLa cells (human, UniProt A0AVI4 1-362)
T1 construct: whole, on cells; Endogenous protein in HeLa lysates; also called E3 ligase TMEM129
T1 sequence (looked up): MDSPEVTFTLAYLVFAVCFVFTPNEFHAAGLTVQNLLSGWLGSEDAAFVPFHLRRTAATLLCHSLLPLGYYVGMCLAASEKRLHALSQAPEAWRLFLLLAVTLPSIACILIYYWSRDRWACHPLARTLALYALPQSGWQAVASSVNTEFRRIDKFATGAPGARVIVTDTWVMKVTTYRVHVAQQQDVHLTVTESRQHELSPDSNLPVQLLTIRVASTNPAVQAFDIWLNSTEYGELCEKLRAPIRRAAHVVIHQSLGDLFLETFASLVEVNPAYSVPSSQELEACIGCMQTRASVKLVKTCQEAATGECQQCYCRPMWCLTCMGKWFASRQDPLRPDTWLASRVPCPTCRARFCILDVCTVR
Experiment: co-immunoprecipitation with anti-FLAG, HeLa^US11+FcRnCT-/- cells transfected with Derlin-1 (FIG. 5E)

B1: FLAG-tagged tailless human FcRn (FcRn CT-/-) (receptor)
chain: not shown
notes: domain: tailless FcRn (CT-/-); also called FcRn-tailless; FcRn tailless
binding result: no binding
